Data as given in the antibiotic and cytotoxicity screens of Wong et al. (2023).
The other results are listed elsewhere or left out.

Columns and labels:
HSkMC = human skeletal muscle cells; assay: cytotoxicity call (relative viability < 0.9); settings: 10 µM
HepG2 = assay: cytotoxicity call (relative viability < 0.9); settings: 10 µM
S. aureus RN4220 = assay: growth inhibition call (relative growth <= 0.2); settings: 50 µM

Q: How did the cytotoxicity call (HSkMC) turn out when C[C@@H]1CCCCO[C@@H](CN(C)C(=O)Cc2ccccc2)[C@H](C)CN([C@H](C)CO)C(=O)c2cc(NS(=O)(=O)c3ccc(Cl)cc3)ccc2O1 was run?
A: inactive

Q: And the cytotoxicity call (HepG2)?
A: inactive

Q: What about the growth inhibition call (S. aureus RN4220) of the same compound?
A: inactive

Q: Which results are given for C[C@@H]1CN([C@@H](C)CO)C(=O)Cc2cc(NC(=O)Nc3cccc4ccccc34)ccc2O[C@@H]1CN(C)S(=O)(=O)c1ccc(Cl)cc1?
A: cytotoxicity call (HSkMC): inactive; cytotoxicity call (HepG2): active; growth inhibition call (S. aureus RN4220): inactive

Q: With C[C@@H]1CN([C@@H](C)CO)C(=O)CCCn2nncc2CO[C@@H]1CN(C)S(=O)(=O)c1cccc(C#N)c1 as the compound, how does the cytotoxicity call (HSkMC) read?
A: inactive

Q: What about the cytotoxicity call (HepG2) of the same compound?
A: inactive

Q: And the growth inhibition call (S. aureus RN4220)?
A: inactive

Q: What does the source list for C[C@@H]1CCCCO[C@H](CN(C)C(=O)NC2CCCCC2)[C@H](C)CN([C@H](C)CO)C(=O)c2cc(NS(=O)(=O)c3ccccc3)ccc2O1?
A: cytotoxicity call (HSkMC): inactive; cytotoxicity call (HepG2): inactive; growth inhibition call (S. aureus RN4220): inactive

Q: What does the source list for Cc1cccnc1[C@H](c1ccc(F)cc1)N(C)C(=O)C1CCN(CCn2cnc3c2c(=O)n(C)c(=O)n3C)CC1?
A: cytotoxicity call (HSkMC): inactive; cytotoxicity call (HepG2): inactive; growth inhibition call (S. aureus RN4220): inactive

Q: How did the cytotoxicity call (HSkMC) turn out when CC1CCc2c(N3CCC(O)CC3)c(F)cc3c(=O)c(C(=O)O)cn1c23 (stereo not drawn) was run?
A: inactive

Q: And the cytotoxicity call (HepG2)?
A: inactive

Q: And the growth inhibition call (S. aureus RN4220)?
A: inactive

Q: C[C@@H]1CN([C@@H](C)CO)C(=O)c2cc(NS(=O)(=O)c3ccc(Cl)cc3)ccc2O[C@@H](C)CCCCO[C@@H]1CN(C)S(=O)(=O)c1ccccc1 was tested. Which cytotoxicity call (HSkMC) did it give?
A: inactive

Q: And the cytotoxicity call (HepG2)?
A: active

Q: And the growth inhibition call (S. aureus RN4220)?
A: inactive

Q: What does the source list for CO[C@@H](C(=O)N(C)C[C@H]1OCc2ccccc2-c2c(n(C)c3ccccc23)C(=O)N([C@H](C)CO)C[C@@H]1C)c1ccccc1?
A: cytotoxicity call (HSkMC): inactive; cytotoxicity call (HepG2): inactive; growth inhibition call (S. aureus RN4220): inactive

Q: C[C@H](CO)N1C[C@H](C)[C@@H](CN(C)C(=O)Nc2ccc(C(F)(F)F)cc2)Oc2ccc(NC(=O)CCC(F)(F)F)cc2CC1=O was tested. Which cytotoxicity call (HSkMC) did it give?
A: inactive

Q: And the cytotoxicity call (HepG2)?
A: inactive

Q: What about the growth inhibition call (S. aureus RN4220) of the same compound?
A: inactive

Q: Which cytotoxicity call (HSkMC) does the source give for c1ccc2[nH]c(-c3cscn3)nc2c1 here?
A: inactive

Q: What about the cytotoxicity call (HepG2) of the same compound?
A: inactive

Q: What about the growth inhibition call (S. aureus RN4220) of the same compound?
A: inactive

Q: Which results are given for COc1ccc(NC(=O)N(C)C[C@@H]2OCCCC[C@@H](C)Oc3ccc(NC(=O)C4CCCCC4)cc3C(=O)N([C@H](C)CO)C[C@@H]2C)cc1?
A: cytotoxicity call (HSkMC): inactive; cytotoxicity call (HepG2): inactive; growth inhibition call (S. aureus RN4220): inactive

Q: For COC(=O)c1c(CC[C@@H](CO)NC(=O)N[C@@H](C)Cn2cc(-c3ccccn3)nn2)oc(C(C)=O)c1C(=O)OC, which cytotoxicity call (HSkMC) is on record?
A: inactive

Q: And the cytotoxicity call (HepG2)?
A: inactive

Q: And the growth inhibition call (S. aureus RN4220)?
A: inactive

Q: For Cc1ccc(C(=O)Oc2ccc(/C=N/c3cccs3)cc2)cc1, which cytotoxicity call (HSkMC) is on record?
A: inactive

Q: What about the cytotoxicity call (HepG2) of the same compound?
A: active

Q: And the growth inhibition call (S. aureus RN4220)?
A: inactive

Q: Which cytotoxicity call (HSkMC) does the source give for C[C@H](CO)N1C[C@H](C)[C@H](CN(C)C(=O)Nc2ccc(C(F)(F)F)cc2)Oc2ccc(NC(=O)C3CCCCC3)cc2C1=O here?
A: inactive

Q: And the cytotoxicity call (HepG2)?
A: inactive

Q: What about the growth inhibition call (S. aureus RN4220) of the same compound?
A: inactive

Q: With C=C(C)[C@@H]1CC[C@]2(C(=O)O)CC[C@]3(C)[C@H](CC[C@@H]4[C@@]5(C)CC[C@H](OC(=O)CC(C)(C)C(=O)O)C(C)(C)[C@@H]5CC[C@]43C)[C@@H]12 as the compound, how does the cytotoxicity call (HSkMC) read?
A: inactive

Q: And the cytotoxicity call (HepG2)?
A: inactive

Q: What about the growth inhibition call (S. aureus RN4220) of the same compound?
A: inactive

Q: What does the source list for Cc1noc(C)c1NC(=O)Nc1ccc2c(c1)C(=O)N([C@@H](C)CO)C[C@@H](C)[C@@H](CN(C)Cc1ccccc1)OCCCC[C@H](C)O2?
A: cytotoxicity call (HSkMC): inactive; cytotoxicity call (HepG2): inactive; growth inhibition call (S. aureus RN4220): inactive

Q: For C[C@H](CO)N1C[C@H](C)[C@@H](CN(C)S(=O)(=O)c2cn(C)cn2)OCCCC[C@H](C)Oc2ccc(NS(=O)(=O)c3ccccc3)cc2C1=O, which cytotoxicity call (HSkMC) is on record?
A: inactive

Q: And the cytotoxicity call (HepG2)?
A: inactive

Q: And the growth inhibition call (S. aureus RN4220)?
A: inactive

Q: C[C@@H]1CN([C@H](C)CO)C(=O)c2cccc(NC(=O)c3ccc(-c4nccs4)cc3)c2O[C@H]1CN(C)Cc1ccc(C(=O)Nc2ccccc2N)cc1 was tested. Which cytotoxicity call (HSkMC) did it give?
A: inactive

Q: And the cytotoxicity call (HepG2)?
A: inactive

Q: What about the growth inhibition call (S. aureus RN4220) of the same compound?
A: inactive

Q: C[C@H]1CCCCO[C@@H](CN(C)S(=O)(=O)c2ccc(Cl)cc2)[C@@H](C)CN([C@@H](C)CO)C(=O)c2cc(NC(=O)NC3CCCCC3)ccc2O1 was tested. Which cytotoxicity call (HSkMC) did it give?
A: inactive

Q: What about the cytotoxicity call (HepG2) of the same compound?
A: active

Q: And the growth inhibition call (S. aureus RN4220)?
A: inactive

Q: What does the source list for C[C@@H]1CN([C@H](C)CO)C(=O)c2cc(NC(=O)Nc3ccccc3)ccc2O[C@@H](C)CCCCO[C@H]1CN(C)Cc1ccc(Cl)c(Cl)c1?
A: cytotoxicity call (HSkMC): active; cytotoxicity call (HepG2): active; growth inhibition call (S. aureus RN4220): inactive

Q: With CNC[C@@H]1Oc2c(NS(=O)(=O)c3cn(C)cn3)cccc2C(=O)N([C@@H](C)CO)C[C@@H]1C as the compound, how does the cytotoxicity call (HSkMC) read?
A: inactive

Q: What about the cytotoxicity call (HepG2) of the same compound?
A: inactive

Q: What about the growth inhibition call (S. aureus RN4220) of the same compound?
A: inactive

Q: How did the cytotoxicity call (HSkMC) turn out when C[C@@H]1CCCCO[C@@H](CN(C)S(=O)(=O)c2ccc(Cl)cc2)[C@H](C)CN([C@H](C)CO)C(=O)c2cc(NC(=O)Nc3ccccc3)ccc2O1 was run?
A: inactive

Q: And the cytotoxicity call (HepG2)?
A: inactive

Q: And the growth inhibition call (S. aureus RN4220)?
A: inactive

Q: Which cytotoxicity call (HSkMC) does the source give for Nc1ncnc2c1ncn2[C@@H]1C=C[C@H](CO)O1 here?
A: inactive

Q: And the cytotoxicity call (HepG2)?
A: inactive

Q: What about the growth inhibition call (S. aureus RN4220) of the same compound?
A: inactive

Q: For C[C@H](CO)N1C[C@H](C)[C@@H](CN(C)Cc2ccc(C(=O)Nc3ccccc3N)cc2)Oc2ccc(NC(=O)CCC(F)(F)F)cc2C1=O, which cytotoxicity call (HSkMC) is on record?
A: inactive

Q: What about the cytotoxicity call (HepG2) of the same compound?
A: inactive

Q: What about the growth inhibition call (S. aureus RN4220) of the same compound?
A: inactive

Q: Which results are given for C[C@@H](O)C#Cc1ccc2c(c1)O[C@@H](CN(C)C)[C@@H](C)CN([C@@H](C)CO)S2(=O)=O?
A: cytotoxicity call (HSkMC): inactive; cytotoxicity call (HepG2): inactive; growth inhibition call (S. aureus RN4220): inactive

Q: Which cytotoxicity call (HSkMC) does the source give for C[C@H](CO)N1C[C@H](C)[C@@H](CN(C)Cc2ccc3c(c2)OCO3)OCCCC[C@H](C)Oc2ccc(NS(=O)(=O)c3ccc(F)cc3)cc2C1=O here?
A: inactive

Q: What about the cytotoxicity call (HepG2) of the same compound?
A: inactive

Q: What about the growth inhibition call (S. aureus RN4220) of the same compound?
A: inactive

Q: With COc1ccc(NC(=O)N(C)C[C@H]2Oc3c(NC(=O)C4CC4)cccc3C(=O)N([C@H](C)CO)C[C@@H]2C)cc1 as the compound, how does the cytotoxicity call (HSkMC) read?
A: inactive

Q: And the cytotoxicity call (HepG2)?
A: inactive

Q: What about the growth inhibition call (S. aureus RN4220) of the same compound?
A: inactive

Q: How did the cytotoxicity call (HSkMC) turn out when Cc1noc(C)c1S(=O)(=O)N(C)C[C@H]1Oc2ccc(NC(=O)Nc3ccccc3)cc2C(=O)N([C@H](C)CO)C[C@@H]1C was run?
A: inactive

Q: And the cytotoxicity call (HepG2)?
A: inactive

Q: What about the growth inhibition call (S. aureus RN4220) of the same compound?
A: inactive

Q: How did the cytotoxicity call (HSkMC) turn out when C[C@@H]1CN([C@@H](C)CO)C(=O)c2cc(NC(=O)c3ccncc3)ccc2O[C@@H](C)CCCCO[C@H]1CN(C)C(=O)Nc1cccc2ccccc12 was run?
A: inactive

Q: And the cytotoxicity call (HepG2)?
A: inactive

Q: And the growth inhibition call (S. aureus RN4220)?
A: inactive

Q: What does the source list for C[C@@H]1CN([C@@H](C)CO)C(=O)c2cc(NC(=O)Nc3ccc(C(F)(F)F)cc3)ccc2O[C@H]1CN(C)Cc1ccc(C(=O)O)cc1?
A: cytotoxicity call (HSkMC): inactive; cytotoxicity call (HepG2): inactive; growth inhibition call (S. aureus RN4220): inactive

Q: How did the cytotoxicity call (HSkMC) turn out when C[C@H]1CN([C@@H](C)CO)C(=O)Cc2cc(NC(=O)Cc3cn(C)c4ccccc34)ccc2O[C@H]1CN(C)C was run?
A: inactive

Q: And the cytotoxicity call (HepG2)?
A: inactive

Q: And the growth inhibition call (S. aureus RN4220)?
A: inactive

Q: With C[C@@H]1CN([C@@H](C)CO)C(=O)c2cc(NC(=O)Nc3ccccc3)ccc2O[C@@H](C)CCCCO[C@@H]1CN(C)C(=O)Cc1ccccc1 as the compound, how does the cytotoxicity call (HSkMC) read?
A: inactive

Q: What about the cytotoxicity call (HepG2) of the same compound?
A: inactive

Q: What about the growth inhibition call (S. aureus RN4220) of the same compound?
A: inactive

Q: How did the cytotoxicity call (HSkMC) turn out when C[N+](C)(C)CCCC[C@@H]1NC(=O)[C@H]2C[C@@H](C(=O)NCCCCCCNC(=O)CS)[C@@H](c3ccc(O)cc3)N2C1=O was run?
A: inactive

Q: And the cytotoxicity call (HepG2)?
A: inactive

Q: And the growth inhibition call (S. aureus RN4220)?
A: inactive

Q: Which results are given for CC(C)(C)OC(=O)C[C@@H]1CC=CC[C@H](CC(=O)N[C@@H](CO)Cc2ccccc2)C(=O)N2CCC[C@H]2COC1=O?
A: cytotoxicity call (HSkMC): inactive; cytotoxicity call (HepG2): inactive; growth inhibition call (S. aureus RN4220): inactive

Q: How did the cytotoxicity call (HSkMC) turn out when C#CCOc1ccc(-c2c(C(=O)NC3CCCCC3)oc(OC)c2S(=O)(=O)c2ccc(Cl)cc2)cc1 was run?
A: inactive

Q: What about the cytotoxicity call (HepG2) of the same compound?
A: active

Q: And the growth inhibition call (S. aureus RN4220)?
A: inactive

Q: Which cytotoxicity call (HSkMC) does the source give for Cc1noc(C)c1NC(=O)N(C)C[C@@H]1Oc2c(NC(=O)c3cnccn3)cccc2C(=O)N([C@@H](C)CO)C[C@H]1C here?
A: inactive

Q: And the cytotoxicity call (HepG2)?
A: inactive

Q: And the growth inhibition call (S. aureus RN4220)?
A: inactive

Q: How did the cytotoxicity call (HSkMC) turn out when C[C@H](CO)N1C[C@H](C)[C@H](CN(C)Cc2ccc(-c3ccccc3)cc2)Oc2ccc(NC(=O)CCCCCC(=O)Nc3ccccc3N)cc2C1=O was run?
A: inactive

Q: What about the cytotoxicity call (HepG2) of the same compound?
A: active

Q: What about the growth inhibition call (S. aureus RN4220) of the same compound?
A: inactive

Q: For C[C@@H]1CN([C@H](C)CO)C(=O)Cc2cc(NS(C)(=O)=O)ccc2O[C@@H]1CN(C)C(=O)Nc1ccc2c(c1)OCO2, which cytotoxicity call (HSkMC) is on record?
A: inactive

Q: And the cytotoxicity call (HepG2)?
A: inactive

Q: What about the growth inhibition call (S. aureus RN4220) of the same compound?
A: inactive

Q: Which results are given for Cc1ccc(S(=O)(=O)Nc2ccc3c(c2)C(=O)N([C@@H](C)CO)C[C@@H](C)[C@H](CN(C)C(=O)Nc2ccccc2)OCCCC[C@@H](C)O3)cc1?
A: cytotoxicity call (HSkMC): inactive; cytotoxicity call (HepG2): inactive; growth inhibition call (S. aureus RN4220): inactive

Q: How did the cytotoxicity call (HSkMC) turn out when C[C@H](CO)N1C[C@H](C)[C@@H](CN(C)Cc2ccc(C(F)(F)F)cc2)OCCCC[C@H](C)Oc2ccc(NC(=O)Cc3ccccc3)cc2C1=O was run?
A: active

Q: And the cytotoxicity call (HepG2)?
A: active

Q: What about the growth inhibition call (S. aureus RN4220) of the same compound?
A: inactive

Q: With CN(C)C(=O)CSc1nnc(N)s1 as the compound, how does the cytotoxicity call (HSkMC) read?
A: inactive

Q: And the cytotoxicity call (HepG2)?
A: inactive

Q: And the growth inhibition call (S. aureus RN4220)?
A: inactive
